Hit rate of the full screen: of about 150,000 compounds, about 540 (0.36%) showed an effect of 50% or more. The list shows a part of the results.

This test relates to Plasmodium falciparum. Nature of the test: Primary screen in NF54 nanoGlo assay, in single point, at 2uM, 72h; a lower Z score goes with more inhibition. Format: functional, Erythrocyte. Particulars: timepoint 72 hour.
For orientation: % Inhibition means the change of the read-out against control, counted positive when it falls. `N#Cc1cnn(CC(=O)N(C2CCCCC2)[C@H]2CCS(=O)(=O)C2)c1`: the “% Inhibition” value is listed as -6% and the Z score is 1.03.

Turning to `CN1CCc2c(c3ccccc3n2/C=C\c2cccnc2)C1`, the “% Inhibition” value was -7% and the Z score worked out at 1.28.

For the molecule `C[C@H]1C[C@@H](O)CCN1C(=O)c1ccoc1`, the “% Inhibition” value was -14% and the Z score is listed as 2.02.

`CC1CC(c2ccsc2)CN1S(=O)(=O)N(C)C` (stereo unspecified): the “% Inhibition” value was 2% and the Z score is -0.27.

For `c1cncc(-c2n[nH]cc2CNCc2ccc(Cn3cccn3)cc2)c1`, the “% Inhibition” value is on record as -3% and the Z score turned out to be 0.37.

On to `CON(C)C[C@H](O)Cn1cc(Nc2ncnc3cc(F)ccc23)cn1`, for which the “% Inhibition” value was determined as 33% and the Z score is on record as -0.52.

Turning to `Cc1ccc(C)c(S(=O)(=O)NCCC(=O)N[C@@]2(C)CCS(=O)(=O)C2)c1`, the “% Inhibition” value is on record as -3% and the Z score came to 0.44.

As to `O=C(N[C@H]1CCOc2c1ccc(Cl)c2Cl)C1CCOCC1`, the “% Inhibition” value is -2% and the Z score is 0.38.

For the molecule `CN(C)Cc1nnc(C2CCN(C(=O)CN(C)c3ccccc3)CC2)n1C`, the “% Inhibition” value came to 3% and the Z score is -0.44.

In the case of `Cc1[nH]c(=O)c(C#N)c(C)c1CCC(=O)N[C@@H]1C[C@@H](C)Oc2ccccc21`, the “% Inhibition” value is listed as -3% and the Z score was determined as 0.52.

With `Cc1nc(NC(=O)c2cccc3ccccc23)ccc1Cl`, the “% Inhibition” value is on record as 12% and the Z score was -1.34.

Take `CCc1sc(C(=O)NCC(C)(C)C(N)=O)cc1C`: the “% Inhibition” value is recorded as -8% and the Z score amounted to 1.11.

As for `CCCCN(CC)CCNC(=O)C1CCN(C2=NS(=O)(=O)C(c3ccc(OC)cc3)=C2C)CC1`, the “% Inhibition” value is on record as 57% and the Z score is on record as -3.61.

As for `COc1cccc(CNc2nc(C)c(-c3ccn(C[C@H]4CCCCO4)n3)s2)c1`, the “% Inhibition” value is recorded as -12% and the Z score is given as 1.83.

On to `O=C(c1ccccc1)N(CC1CC1)C1CC1`, for which the “% Inhibition” value is -12% and the Z score came to 1.27.

`O=C(CCCN1CCCCC1=O)NC(c1ccccc1)c1ccccc1`: the “% Inhibition” value is on record as -9% and the Z score was determined as 1.

`O=S(=O)(Nc1ncccn1)c1csc2ccc(Cl)cc12`: the “% Inhibition” value was 1% and the Z score is given as -0.14.

Turning to `CC(C)n1ncc2c1CC(NC(=O)C(C)S(C)(=O)=O)CC2` (stereo unspecified), the “% Inhibition” value is 26% and the Z score is -3.62.

For `CCCN1C(=O)c2c(C(=O)NCCN3CCOCC3)ncn2C[C@@]1(C)C(=O)NCc1ccc(C)cc1`, the “% Inhibition” value is -15% and the Z score is recorded as 2.84.

In the case of `CCOc1ncccc1NC(=O)N(C)C1(CCO)CCOCC1`, the “% Inhibition” value was determined as 2% and the Z score is on record as -0.29.

Regarding `COc1c2c(c(Br)c3c1[C@H](CC(=O)NCc1ccccc1)N(C)CC3)OCO2`, the “% Inhibition” value was -5% and the Z score is 0.96.

With `O=C1[C@@H](NC(=O)C2(O)CCCC2)CCCN1c1ccc(Cl)cc1Cl`, the “% Inhibition” value is on record as 16% and the Z score was -2.63.

For the molecule `C=CCN[C@@H](C)c1cnc2ccnn2c1C`, the “% Inhibition” value is on record as -14% and the Z score worked out at 1.42.

As for `CC1CCCCC1N(C)C(=O)c1cc2ccccc2c(=O)[nH]1` (stereo unspecified), the “% Inhibition” value is listed as 37% and the Z score is given as -4.83.

For the molecule `CC(C(=O)Nc1ccccc1-c1ccccc1)N1CCN(C2CCS(=O)(=O)C2)CC1` (stereo unspecified), the “% Inhibition” value is on record as -17% and the Z score is given as 1.95.

For `CCOCCN(C)Cc1c(C)nnn1CC`, the “% Inhibition” value was determined as 0% and the Z score is 0.03.

As to `CC1(C)c2[nH]c3ccccc3c2C[C@H]2C(=O)N(Cc3ccc(Cl)cc3)CC(=O)N21`, the “% Inhibition” value is listed as -4% and the Z score amounted to 0.54.

`O=S(=O)(NC[C@]1(OCCO)CCOC1)c1ccc(Cl)s1`: the “% Inhibition” value is -16% and the Z score is 2.41.

`Cc1cc(=O)c(C(=O)N2CCCCC2)c(CC2CCCC2)n1Cc1cccnc1`: the “% Inhibition” value is reported as 8% and the Z score is -1.07.

As for `CCN(CC)c1ccc(C(=O)NCc2ccc3c(c2)CCN3C(C)=O)cc1`, the “% Inhibition” value is 0% and the Z score is on record as -0.04.

As for `Cc1ccc(-c2nocc2CCC(=O)NC[C@H]2CCCO2)cc1`, the “% Inhibition” value is listed as -17% and the Z score is reported as 2.22.

On to `O=C(NCC(CO)Cc1ccc(Cl)cc1)C1CCCOC1` (stereo unspecified), for which the “% Inhibition” value was -3% and the Z score is 0.33.

As to `C[C@@H](CC(=O)N1CCN(CC(N)=O)C(=O)C1)c1ccc(F)cc1`, the “% Inhibition” value is listed as -10% and the Z score is on record as 1.81.

Regarding `CC1CCCC(NC(=O)CN2CCN(C3CCN(S(C)(=O)=O)CC3)CC2)C1` (stereo unspecified), the “% Inhibition” value was -8% and the Z score was 1.58.

Regarding `Cn1c(=O)[nH]cc(CC(=O)NCc2ccc3[nH]c4c(c3c2)CCCC4)c1=O`, the “% Inhibition” value is listed as -1% and the Z score stood at 0.12.

With `CC(C)c1ocnc1C(=O)N1C[C@H]2CC[C@@H](C1)N(CC(=O)N(C)C)C2=O`, the “% Inhibition” value is on record as 9% and the Z score is -1.25.

Turning to `CCn1nc(CO)c2c1CCN(c1nccc(C3CCCC3)n1)C2`, the “% Inhibition” value is -10% and the Z score came out at 1.66.

With `COCCN(CC1CCN(Cc2ccccc2OC)CC1)C(=O)c1n[nH]c2c1CCC2`, the “% Inhibition” value is -6% and the Z score was determined as 0.8.

`O=C(Nc1ccnn1C1CCCC1)[C@@H]1CCCO1`: the “% Inhibition” value was -2% and the Z score came to 0.33.

Consider `CCOc1ccc(-c2c[nH]c([C@H]3CCCN(CC)C3)n2)cc1OCC`, for which the “% Inhibition” value is -4% and the Z score came to 0.53.

With `COC(C)(C)C[C@H](C)NCc1ccc2nonc2c1`, the “% Inhibition” value is on record as -8% and the Z score came to 1.52.

On to `O=C(NC1CN(C(=O)Nc2cnns2)C1)C1CCC1`, for which the “% Inhibition” value was -13% and the Z score was found to be 1.41.

Regarding `CC(C)(C#N)C(=O)Nc1cc(S(C)(=O)=O)ccc1F`, the “% Inhibition” value is reported as -12% and the Z score is given as 1.49.

For the origin of these results see ChEMBL document CHEMBL4888484, “Replenishing the malaria drug discovery pipeline: Screening and hit evaluation of the MMV Hit Generation Library 1 (HGL1) against asexual blood stage Plasmodium falciparum ,using a nano luciferase reporter read-out” (2022).
